Test results: the RNAGym collection of RNA variant scans (doi:10.7554/elife.90254)
The source gives no read counts; variants with many changes may rest on few reads.

B1: LINE1-full (parent)
chain: UACGUAGGUGGUUUUCCCCUGAUAGUGCUAAGGGGGCCUGGAAGUUUGGACUGGGCAGAGCUCAACACAGCGUGGCAAAGUGGCUGUGGCUAGACUGCCUCUCUGGAUUCCUCGUCACUCAGCAGGGCAUCUCUGAGAGAAAUGCC

Variants of: B1
Assay: self-cleavage, relative activity (ratio to wild type); higher = more cleavage; in vitro, sequencing; the parent is a self-cleaving ribozyme

Variant | self-cleavage
A30G G36A C113A | 1.26
G34U A50G G88U A117G | 0.05
U15C U39C U46C U87A | 0
U20C U81C C90U U115A A138G | 0.03
A6U U15A A43G | 0.57
A43U A78G U96C | 0
U13A A57U C128G | 0.02
A22G U87C G88A U100A A129G | 0
A50U U87C A94C A141G | 0
U13A C66U C120U | 0.02
U45C U85A A94G A129G | 0
U9A U20G U81C | 0.63
U1A C16U U109C | 1.58
C37G A42U A107G | 1.21
U39A G86A U143C | 0.1
A31C U47A U62C U104A G139U | 0.04
A107U U119C A121U A140G | 2.48
G36A U73C G93U | 0.03
U26C U39A U102A | 1.26
A67U A69U A94G A142G | 0.1
U15C A22U A57G U81C U87A | 0.07
A2G U12A U14A U104C | 0
U1C U96C U102A U109C | 0.3
U12C A22G C38U A79G A136G | 0.64

Variant | self-cleavage
U15C A69G A79U | 0.44
A67G C68A A94U U96A U132C | 0.02
A50U A57G A142G | 0.59
A2G U20A U115C | 0.37
C113U A117U A129G | 1.89
A43G U104A A124U G125A A141U | 0.49
G36A U73C U85C | 0.05
C3U U47A U104C A141G | 0.99
U15C A22G A69G C90U | 0.05
C66U C90U U104C | 0.02
U26C U96A U102A | 0.08
A117G U130A A136G | 1.53
U46C A57U U134C A138G | 0.17
U47A U109C A138G | 1.47
U47A G49A A64U U115G | 0.4
U20G U87G A138G | 0.04
U14C U46A U96A | 0.1
U39C G89U A140G | 0.05
U12C U47A A50G U115C A138G | 2.3
A50G A94U U119C | 0.24
A77U U81C U87C | 0.18
A30U U96G U102C | 0.31
U52A U85C U112A | 0.15
A24G A31G U91A A140G | 0.66

Variant | self-cleavage
U13C A78G U96C G125U | 0.1
A22G A59G U85C | 0
U12G U52A A138U | 0.9
G34A U85A U109A | 0
U1C C3U A94G A121U | 0.34
C66U U87C A138G | 0.01
U9A A59G A142G | 0
U20C U39C U62C A65U U104A U112A | 0.1
U47C A64G G72A | 0.33
U47C U100C U104A | 0.93
A2U A59U A77U G126A | 0.77
C37G A65U A78G U96A | 0.04
C3U U26C A77C A142G | 0.34
G8U U96C U119A | 0.3
G70U U104G U112C | 0.04
A42U U47A A64G A136U | 0.15
A67G U104A A142G U143C | 0.84
A2G A42G U102A | 1.53
U12G A64G C71U U96A U100C | 0.12
U9G A43G C66U | 0.22
U29C G34U C98U A142U | 0.89
C19U U87C U132C | 0.22
U26C G33U U81A | 1.48
U45G U85A U108C | 0.21

Variant | self-cleavage
U13C A64G A65G U112A A141G | 0
A2G U9G A59U A117G | 1.11
U62A U109C U115C | 0.06
A30G U62A A117G | 0
A42G U100C U119C | 0
G44A U46C A67C | 0.12
G34U C37U A42U | 0.7
U115C U130C U132C | 0.92
U20G G36A A42G G44C A69U A77G A78U G126A | 0.09
A24G U47C A78G U96C U115A | 1.31
G34C G74A A121U | 1.46
U15A U26C U73C U115A | 0.28
U62C U109A A140G | 0.05
U14C U20C U39A | 1.15
C3U U9C U52A | 0.9
G32A A59U G89A U112C A129G | 0.04
U14C A31U C90U A107G | 0.13
U62C U100C U130A A136G | 0.06
U26G C37G A67G | 0
A43G U85A A138G A142G | 0.07
G8A U20A G21U U45C U47C | 0.94
U9A U23C A57G A107U | 0
U45C A107U A117G U143G | 0
U20C U23C U96G C120A A129G | 0

Variant | self-cleavage
U39C U62C U109A | 0
U9C U52C A64U G114A U134A | 0.32
U45C A64U A69G C110G A138U | 0
A6G U62C A78G U108C | 0
U26C A30G U102C A140G U143A | 1.31
A31G A43G U104C | 1.05
U20A A24G G32A A43G A78G U108C | 0
A43G G53A A78G | 0.56
A22G U39A C66U U104A | 0.11
U15A C16A A94G A141G | 0
U102A A117G A129G A141G | 1.31
A79G U100A U104C | 1.06
U14C A124U A136G | 0.41
A2G U52A A138U | 0.44
A2G A22G A64G A69G G86A C123A | 0.14
A24G U73A A94G A140U | 0.35
U12A A79G U85C U104A | 0
U12C A64G G127C U134C | 0.67
U12C A129G U143A | 1.71
C84U U102A U143C | 0.09
A77U G83A C131A A142U | 1.22
G7C G74A U85C U130C A142G | 0.04
U12G C71U A136U | 1.09
U52A U87A A124G | 0.26

Variant | self-cleavage
A30U U46C G106U | 0
C17A A65G C110U | 0.03
G7A U12A U13C | 0.81
A2G U45C U102C | 0
A65G G86A U102C | 0.03
U1C U9C U14C U26A A69G A142G | 0.48
U20C G53U U119C A141G | 1.85
A6G U109A U143A | 0.85
C3U U9C U132A A138C | 0.31
U14G A59G A78G U119C | 0
A42U A67G U91C A121G | 0
A50U A121U U132A | 1.01
U12C A30G U45C G60C | 0
A31G U62C A69U | 0
A59U A94G A138G | 2.34
A22U U23C U91C | 0.37
A42G A79G A136G | 0.85
G7U A50U U119C U134A | 1.21
U1A U73C A141G | 1.44
G8A C63A A141G | 0
A42G U62C A78U U104A A121U | 0.04
U12C C38A A117G | 0.55
U20C U62A A136U | 0.12
U14G A65G A78G | 0

Variant | self-cleavage
A59G U132C A140G | 0
U104A U109A A142G C145A | 0.8
U9C A64U A77U U102A A140U A141G | 0.28
C98U U112C U119C | 0.2
U14C A42G A121U U130C | 2.19
U20C A117U A138U | 1.64
A22G U73A A129U | 1.32
A2U U87A A124U | 0.09
U15C A31U U62A | 0.08
U46C G49A A59G A77G A107G C123A | 0.11
U9C A141G G144A | 1.25
C16U G21U U52C | 1.29
U9A U14C U23C U39C U62A A79G | 0
U9C U45C G54A U73A | 0.44
A31G A65G A140G | 0
G40A A42G U115C | 0
A42G U108C A138C | 1.67
G48A U100C A138G A141G | 1.67
U12G G88A U119C | 0.06
U9C C16U A117G | 1.71
U14C A67G U109C A136U | 0.26
C63A A65C U96C A142G | 0.05
U87C G114U U115C U119C | 0.1
